From US20250163166A1 (REGENECORE BIOTECH, published 2025)

B1: bispecific antibody BM#33 against CD33 and CD123 (bispecific antibody, human IgG1)
chain 1: QVQLVESGGGSVQAGGSLRLSCAASGYTYSSTCIGWFRQAPGKDREGVAFAYTGGGVTYADSVKGRFTISQDNAKNTVHLIMNSLKPEDTAMYYCAAKTRGGCWAAAAFYNYWGQGTQVTVSS[human IgG1 Fc with T366D (EU numbers) left out here]
chain 2: QVQLVESGGGSVQAGGSLKLSCAASRFIFSRCGMGWFRQAPGKERELVSTISGDGTTFYADSVKGRFTISQHNAATTLYLQMNSLKLEDTAVYYCAADCYNRKYWGQGTQVTVSS[human IgG1 Fc with Y407K (EU numbers) left out here]
notes: VHH-Fc heterodimer
B2: bispecific antibody BM#5 against CD33 and CD123 (bispecific antibody, human IgG1)
chain 1: QVQLVESGGGSVQAGGSLRLSCAASGYTYSSTCIGWFRQAPGKDREGVAFAYTGGGVTYADSVKGRFTISQDNAKNTVHLIMNSLKPEDTAMYYCAAKTRGGCWAAAAFYNYWGQGTQVTVSS[human IgG1 Fc with D356K T366W (EU numbers) left out here]
chain 2: QVQLVESGGGSVQAGGSLKLSCAASRFIFSRCGMGWFRQAPGKERELVSTISGDGTTFYADSVKGRFTISQHNAATTLYLQMNSLKLEDTAVYYCAADCYNRKYWGQGTQVTVSS[human IgG1 Fc with T366S L368A Y407V K439E (EU numbers) left out here]
notes: VHH-Fc heterodimer; also called BM-RT2831-#5
B3: bispecific antibody BM#6 against CD33 and CD123 (bispecific antibody, human IgG1)
chain 1: QVQLVESGGGSVQAGGSLRLSCAASGYTYSSTCIGWFRQAPGKDREGVAFAYTGGGVTYADSVKGRFTISQDNAKNTVHLIMNSLKPEDTAMYYCAAKTRGGCWAAAAFYNYWGQGTQVTVSS[human IgG1 Fc with E357D T366W (EU numbers) left out here]
chain 2: QVQLVESGGGSVQAGGSLKLSCAASRFIFSRCGMGWFRQAPGKERELVSTISGDGTTFYADSVKGRFTISQHNAATTLYLQMNSLKLEDTAVYYCAADCYNRKYWGQGTQVTVSS[human IgG1 Fc with T366S L368A K370Y Y407V (EU numbers) left out here]
notes: VHH-Fc heterodimer; also called BM-RT2831-#6
B4: bispecific antibody BM#7 against CD33 and CD123 (bispecific antibody, human IgG1)
chain 1: QVQLVESGGGSVQAGGSLRLSCAASGYTYSSTCIGWFRQAPGKDREGVAFAYTGGGVTYADSVKGRFTISQDNAKNTVHLIMNSLKPEDTAMYYCAAKTRGGCWAAAAFYNYWGQGTQVTVSS[human IgG1 Fc with Q347R T366W (EU numbers) left out here]
chain 2: QVQLVESGGGSVQAGGSLKLSCAASRFIFSRCGMGWFRQAPGKERELVSTISGDGTTFYADSVKGRFTISQHNAATTLYLQMNSLKLEDTAVYYCAADCYNRKYWGQGTQVTVSS[human IgG1 Fc with K360D T366S L368A Y407V (EU numbers) left out here]
notes: VHH-Fc heterodimer; also called BM-RT2831-#7
B5: bispecific antibody BM#8 against CD33 and CD123 (bispecific antibody, human IgG1)
chain 1: QVQLVESGGGSVQAGGSLRLSCAASGYTYSSTCIGWFRQAPGKDREGVAFAYTGGGVTYADSVKGRFTISQDNAKNTVHLIMNSLKPEDTAMYYCAAKTRGGCWAAAAFYNYWGQGTQVTVSS[human IgG1 Fc with D356K T366V (EU numbers) left out here]
chain 2: QVQLVESGGGSVQAGGSLKLSCAASRFIFSRCGMGWFRQAPGKERELVSTISGDGTTFYADSVKGRFTISQHNAATTLYLQMNSLKLEDTAVYYCAADCYNRKYWGQGTQVTVSS[human IgG1 Fc with Y407A K439E (EU numbers) left out here]
notes: VHH-Fc heterodimer; also called BM-RT2831-#8
B6: bispecific antibody BM#9 against CD33 and CD123 (bispecific antibody, human IgG1)
chain 1: QVQLVESGGGSVQAGGSLRLSCAASGYTYSSTCIGWFRQAPGKDREGVAFAYTGGGVTYADSVKGRFTISQDNAKNTVHLIMNSLKPEDTAMYYCAAKTRGGCWAAAAFYNYWGQGTQVTVSS[human IgG1 Fc with E357D T366V (EU numbers) left out here]
chain 2: QVQLVESGGGSVQAGGSLKLSCAASRFIFSRCGMGWFRQAPGKERELVSTISGDGTTFYADSVKGRFTISQHNAATTLYLQMNSLKLEDTAVYYCAADCYNRKYWGQGTQVTVSS[human IgG1 Fc with K370Y Y407A (EU numbers) left out here]
notes: VHH-Fc heterodimer; also called BM-RT2831-#9
B7: bispecific antibody BM#10 against CD33 and CD123 (bispecific antibody, human IgG1)
chain 1: QVQLVESGGGSVQAGGSLRLSCAASGYTYSSTCIGWFRQAPGKDREGVAFAYTGGGVTYADSVKGRFTISQDNAKNTVHLIMNSLKPEDTAMYYCAAKTRGGCWAAAAFYNYWGQGTQVTVSS[human IgG1 Fc with Q347R T366V (EU numbers) left out here]
chain 2: QVQLVESGGGSVQAGGSLKLSCAASRFIFSRCGMGWFRQAPGKERELVSTISGDGTTFYADSVKGRFTISQHNAATTLYLQMNSLKLEDTAVYYCAADCYNRKYWGQGTQVTVSS[human IgG1 Fc with K360D Y407A (EU numbers) left out here]
notes: VHH-Fc heterodimer; also called BM-RT2831-#10
B8: bispecific antibody BM#11 against CD33 and CD123 (bispecific antibody, human IgG1)
chain 1: QVQLVESGGGSVQAGGSLRLSCAASGYTYSSTCIGWFRQAPGKDREGVAFAYTGGGVTYADSVKGRFTISQDNAKNTVHLIMNSLKPEDTAMYYCAAKTRGGCWAAAAFYNYWGQGTQVTVSS[human IgG1 Fc with T366W K409W (EU numbers) left out here]
chain 2: QVQLVESGGGSVQAGGSLKLSCAASRFIFSRCGMGWFRQAPGKERELVSTISGDGTTFYADSVKGRFTISQHNAATTLYLQMNSLKLEDTAVYYCAADCYNRKYWGQGTQVTVSS[human IgG1 Fc with T366S L368A D399V F405T Y407V (EU numbers) left out here]
notes: VHH-Fc heterodimer
B9: bispecific antibody BM#15 against CD33 and CD123 (bispecific antibody, human IgG1)
chain 1: QVQLVESGGGSVQAGGSLRLSCAASGYTYSSTCIGWFRQAPGKDREGVAFAYTGGGVTYADSVKGRFTISQDNAKNTVHLIMNSLKPEDTAMYYCAAKTRGGCWAAAAFYNYWGQGTQVTVSS[human IgG1 Fc with T366W K439E (EU numbers) left out here]
chain 2: QVQLVESGGGSVQAGGSLKLSCAASRFIFSRCGMGWFRQAPGKERELVSTISGDGTTFYADSVKGRFTISQHNAATTLYLQMNSLKLEDTAVYYCAADCYNRKYWGQGTQVTVSS[human IgG1 Fc with D356K T366S L368A Y407V (EU numbers) left out here]
notes: VHH-Fc heterodimer; also called BM-RT2831-#15

Legend:
human FCγRIIIa receptor [1] = molecular target: T1, human FCγRIIIa receptor (human, UniProt P08637 part only, limits assumed); experiment: BLI; Ratio against the hIgG (hIgG1) control, fits KD(hIgG)/KD(sample)
T1 construct: Used in solution as the 'antigen' in BLI; also called FcγIIIa receptor
Experimental: (§1) (3) Preparation of antigen working solution: 200 nM antigen (FCγRIIIa) in SD buffer was first prepared at and then serially diluted in 2 folds to prepare a total of 5 concentration gradients, in addition to which a zero concentration was prepared.
(§2) (11) Data analysis: related constants, such as KD, Kon, Koff, X2, Full R2 and the like were calculated in Data Analysis software.
(§3) In the examples of the present application, the modified bispecific antibody was subjected to BLI test to determine the affinity of the modified bispecific antibody to human FCγRIIIa.

human FCγRIIIa receptor [2] = molecular target: T1, human FCγRIIIa receptor; experiment: BLI (Octet 96), antibody loaded on sensor, FCγRIIIa 200 nM and 2-fold dilutions in solution
Experimental: as §1, §2, §3

T1 sequence (P08637 17-208 limits assumed): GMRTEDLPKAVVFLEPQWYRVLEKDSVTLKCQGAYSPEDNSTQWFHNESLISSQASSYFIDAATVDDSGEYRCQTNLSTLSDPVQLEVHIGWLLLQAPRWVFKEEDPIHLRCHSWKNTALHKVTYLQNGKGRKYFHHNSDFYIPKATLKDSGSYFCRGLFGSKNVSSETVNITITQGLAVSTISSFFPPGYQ

Binder | Ratio (human FCγRIIIa receptor [1]) | Kd (human FCγRIIIa receptor [2]) [nM]
B1 | 1.26 | 70.6
B2 | 1.16 | 76.5
B3 | 0.97 | 91.3
B4 | 1.45 | 61
B5 | 1.4 | 63.4
B6 | 1.21 | 73
B7 | 1.25 | 70.9
B8 | 1.92 | 46.2
B9 | 1.3 | 68.2
